For 45 sequences, cell viability results are on record in the supplement of paper PMC8948288.

One data set has as its system GL261. The data set is described as follows: cell viability relative to siNT1 (ATP content); H4 human neuroglioma and GL261 mouse glioma; higher = less toxic. The note with it: siRNA concentration 25 nM; 96 h; mouse.
The test system of a further data set is H4. The data set is described as above. Particulars: siRNA concentration 10 nM; 96 h; human.

The sequences are guide strands of siRNAs; only the seed at positions 2 to 7 varies.
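Further: cells reverse transfected with siRNA duplexes via lipid reagent, ATP read by luminescence, triplicate wells, values scaled to mean viability with non-targeting control siNT1.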

A word on the cell viability: it is a read-out of living cells in per cent, often relative to untreated cells. As to UUAGCGUACAUGUAAACCA, the cell viability in the data set on GL261 was 67.2%; in the data set on H4 it was 77.8%.

Turning to UUAGCUAACAUGUAAACCA, the cell viability was determined as 75.7% in the data set on GL261 and 93.2% in the data set with H4.

On to UUAGCUCACAUGUAAACCA, for which the values for the cell viability in the data set on GL261 and in the data set on H4 were 40.6% and 33.9%, respectively.

As to UUAGCUGACAUGUAAACCA, the cell viability came out at 80.9% in the data set with GL261 and 83.1% with H4.

As to UUAGCUUACAUGUAAACCA, the cell viability in the data set on GL261 is 53.9%; with H4, 65.4%.

For UUAGGAAACAUGUAAACCA, the cell viability with GL261 was 62.2%; in the data set with H4, 78.4%.

As for UUAGGACACAUGUAAACCA, the cell viability with GL261 was 49.9%; in the data set with H4, 52.9%.

For UUAGGAGACAUGUAAACCA, the cell viability in the data set with GL261 was 63.9%; in the data set with H4, 77.2%.

In the case of UUAGGAUACAUGUAAACCA, the values for the cell viability in the data set on GL261 and with H4 were 59.9% and 55.3%, respectively.

UUAGGCAACAUGUAAACCA: the cell viability with GL261 worked out at 46.7%; in the data set with H4 it was 84.6%.

Take UUAGGCCACAUGUAAACCA: the cell viability is 14.2% with GL261 and 28.5% in the data set on H4.

As to UUAGGCGACAUGUAAACCA, the cell viability in the data set with GL261 is 56.7%; in the data set with H4, 69.9%.

For UUAGGCUACAUGUAAACCA, the cell viability with GL261 is 34.2%; in the data set with H4, 47.9%.

With UUAGGGAACAUGUAAACCA, the values for the cell viability with GL261 and in the data set with H4 were 47.2% and 64.4%, respectively.

Regarding UUAGGGCACAUGUAAACCA, the results for the cell viability with GL261 and in the data set with H4 were 43.3% and 26.9%, respectively.

With UUAGGGGACAUGUAAACCA, the cell viability in the data set with GL261 was 46.3%; with H4, 43.6%.

As for UUAGGGUACAUGUAAACCA, the cell viability in the data set on GL261 turned out to be 27.3%; with H4, 34.4%.

As to UUAGGUAACAUGUAAACCA, the values for the cell viability in the data set on GL261 and in the data set with H4 were 43.7% and 84.8%, respectively.

Regarding UUAGGUCACAUGUAAACCA, the cell viability with GL261 was 49.1%; in the data set with H4 it was 10.4%.

Take UUAGGUGACAUGUAAACCA: the cell viability was found to be 59.1% in the data set with GL261 and 77.9% in the data set with H4.

For the sequence UUAGGUUACAUGUAAACCA, the cell viability in the data set on GL261 was 39.5%; in the data set on H4 it was 84.7%.

For the sequence UUAGUAAACAUGUAAACCA, the values for the cell viability in the data set on GL261 and in the data set with H4 were 45.8% and 87.4%, respectively.

For UUAGUACACAUGUAAACCA, the cell viability in the data set with GL261 amounted to 33.5%; in the data set with H4, 74%.

With UUAGUAGACAUGUAAACCA, the values for the cell viability in the data set on GL261 and with H4 were 49.7% and 91.6%, respectively.

Consider UUAGUAUACAUGUAAACCA, for which the cell viability in the data set with GL261 was 40.8%; in the data set with H4, 75.9%.

On to UUAGUCAACAUGUAAACCA, for which the cell viability in the data set with GL261 came to 45%; in the data set on H4, 90.5%.

Consider UUAGUCCACAUGUAAACCA, for which the cell viability amounted to 30.2% in the data set on GL261 and 37.4% with H4.

Turning to UUAGUCGACAUGUAAACCA, the results for the cell viability in the data set on GL261 and with H4 were 65.8% and 100%, respectively.

UUAGUCUACAUGUAAACCA: the cell viability in the data set on GL261 worked out at 31.9%; in the data set with H4, 73.7%.

Consider UUAGUGAACAUGUAAACCA, for which the cell viability in the data set with GL261 is 76.4%; in the data set with H4, 76.8%.

Take UUAGUGCACAUGUAAACCA: the cell viability with GL261 is 33.2%; with H4 it was 90.2%.

On to UUAGUGGACAUGUAAACCA, for which the cell viability was determined as 35.9% in the data set on GL261 and 50.6% with H4.

On to UUAGUGUACAUGUAAACCA, for which the cell viability worked out at 55.7% in the data set with GL261 and 28.4% with H4.

For the sequence UUAGUUAACAUGUAAACCA, the cell viability in the data set on GL261 is 66.9%; in the data set with H4, 71.8%.

With UUAGUUCACAUGUAAACCA, the cell viability is 45.3% in the data set on GL261 and 59% in the data set on H4.

As to UUAGUUGACAUGUAAACCA, the cell viability in the data set with GL261 was 71.6%; in the data set with H4, 72.8%.

Take UUAGUUUACAUGUAAACCA: the cell viability turned out to be 67.3% with GL261 and 101% with H4.

Regarding UUAUAAAACAUGUAAACCA, the cell viability in the data set with GL261 was 64.4%; in the data set on H4, 100%.

On to UUAUAACACAUGUAAACCA, for which the values for the cell viability in the data set with GL261 and with H4 were 46.4% and 65.2%, respectively.

On to UUAUAAGACAUGUAAACCA, for which the values for the cell viability in the data set with GL261 and in the data set on H4 were 53.3% and 90.7%, respectively.

As for UUAUAAUACAUGUAAACCA, the cell viability with GL261 turned out to be 60.4%; with H4 it was 94.4%.

On to UUAUACAACAUGUAAACCA, for which the cell viability with GL261 came to 47.6%; in the data set on H4, 74.2%.

Take UUAUACCACAUGUAAACCA: the figures for the cell viability with GL261 and in the data set with H4 were 36.2% and 47.7%, respectively.

Turning to UUAUACGACAUGUAAACCA, the cell viability in the data set with GL261 was determined as 54.7%; in the data set on H4 it was 77.7%.

Consider UUAUACUACAUGUAAACCA, for which the cell viability with GL261 was 23.9%; in the data set with H4, 40.5%.
